These results are taken from US20230322735A1, “AZETIDINYL TRYPTAMINES AND METHODS OF TREATING PSYCHIATRIC DISORDERS” (priority 2020, published 2023).

The data set has as its system monoamine oxidase A and B (MAO-A and MAO-B). Briefly: Stability in the presence of monoamine oxidases (human liver mitochondria preparation). Conditions: for half-life at 1 μM / microsomal CLint at 1 μM: human, human liver mitochondria preparation, pH 7.4; for stability in the presence of MAO compared with dimethyl counterpart: vs DMT, psilocin, 5-MeO-DMT respectively; for Remaining (t = 60 min): human liver mitochondria, 1 μM.

By half-life is commonly meant the time needed for the level to fall by half in the phase considered. Usually microsomal CLint stands for the capacity of the preparation to metabolise the compound, expressed as a volume cleared per time.

Where a name gives a salt, the structure may show the parent alone.

Regarding `c1ccc2c(CCN3CCC3)c[nH]c2c1` [Compound 1, 3-(2-(azetidin-1-yl)ethyl)-1H-indole fumarate], the half-life at 1 μM was more than 145 min, the microsomal CLint at 1 μM is less than 16 µL/min/mg and the “stability in the presence of MAO compared with dimethyl counterpart” value is “greater stability”.
For `Oc1cccc2[nH]cc(CCN3CCC3)c12` [Compound 2, 3-(2-(azetidin-1-yl)ethyl)-1H-indol-4-ol], the “Remaining (t = 60 min)” value is recorded as 88.00%, the half-life at 1 μM is more than 145 min and the microsomal CLint at 1 μM is less than 16 µL/min/mg.
For `COc1ccc2[nH]cc(CCN3CCC3)c2c1` [Compound 3, 3-(2-(azetidin-1-yl)ethyl)-5-methoxy-1H-indole fumarate], the half-life at 1 μM is more than 145 min, the intrinsic metabolic clearance (microsomal CLint) at 1 μM was less than 16 µL/min/mg and the “stability in the presence of MAO compared with dimethyl counterpart” value was “greater stability”.
As to `CN(C)CCc1c[nH]c2ccccc12` [DMT, N,N-dimethyltryptamine, reference compound], the “Remaining (t = 60 min)” value is listed as 8.9%.
